The record followed here is patent CN114395035A.

The assay addresses SARS-CoV-2 Alpha variant RBD蛋白 (SARS-CoV-2). Briefly: SPR (Biacore 8K). Conditions: remark: other sources report otherwise.

B1: IMCAS-72抗体 (全抗IgG1) (antibody)
heavy: DQVQLVESGGGLVQPGGSLRLSCAASGFTFSSYGMHWVRQAPGKGLEWVAVISYDGSDKYYADSVKGRFTISRDNSKNTLYLQMNSLRAEDTAVYYCARDRDRFGDQGGWFDPWGQGTLVTVSS[sequence of human IgG1 constant region omitted]
light: [sequence of about 100 residues omitted][sequence of about 100 residues omitted]
In turn, B1 had a Kd of 6.37 nM.

In general, Kd refers to the free concentration of one partner at which half of the binding sites on the other are occupied at equilibrium, for simple one-to-one binding. Low readings indicate tighter binding, high ones weaker binding.
